The results in this text go back to publication PMC12136788.

The chains are these.
B1: chr6:50807893:50807894:+_ENSG00000008196_ENST00000393655|hu_hu|motif|central (ssRNA)
RNA: GGGAGUUCUACAGUCCGACGAUCCUCAGAGACGGCUUUGGCGGGAAACUCCGUUUCGCAAAUGUACCCAAAAUCCCGGGCGGAGUGAACAGCUUCUCCUUCCACCAGGGAGGUGAGUAACGUGACAUUUGCUGCUUUGCGCCUCAACAGAGGAUUGAGCAUCA
B2: chr10:112654219:112654220:+_ENSG00000150593_ENST00000280154|hu_mus|FALSE|FALSE (ssRNA)
RNA: GGGAGUUCUACAGUCCGACGAUCCCACAAGGAUUUUAAUAAAUCUAAGAUCAUCUUGAAUGCACUUUCUCCAGUUGACUCUAAAACCAUUACAAUGGCUUCAUAUACAAGCUCGUGGUGAAAAUGAGGUACUUCCAGUUCCUUCAACAGAGGAUUGAGCAUCA
B3: chr9:91931296:91931297:+_ENSG00000123975_ENST00000314355|hu_hu|hu_hu_hu_mus_True|98_98 (ssRNA)
RNA: GGGAGUUCUACAGUCCGACGAUCAGAUUAGAUGAUCCCAGAUAAACUUCAUUUUUGUUGUUCUUUUGGAAGAGGUCGUCUAAAGAGAAGAAUAUGCGGUUCUGGCUCAUGAAUCAUGUAAUGAACCCAUCCUAGACUCUGUUGCAACAGAGGAUUGAGCAUCA
B4: chr3:58352644:58352645:+_ENSMUSG00000027810_ENSMUST00000029387|mus_mus|motif|central (ssRNA)
RNA: GGGAGUUCUACAGUCCGACGAUCCUUAUGCAAAAGAGAGCCAGUAUAAUGCCAGAUCUUAUACCCAUUAUUAACACGUAACCGGGGAGCACAUGUGGCUGUUAAGAUAUGCUCACCAUCUGGGCACCAGGCAAAAUAUGUAGACAACAGAGGAUUGAGCAUCA
B5: chrX:71549400:71549401:+_ENSMUSG00000019087_ENSMUST00000019231|mus_hu|mus_mus_mus_hu_False|18_98 (ssRNA)
RNA: GGGAGUUCUACAGUCCGACGAUCGCAGUAGGAAGAGCAAACCUUUCCAGUCCAGUGCGCUGCAGGGUGGGAAAGCAACAACACGGACACCGUCCCACCCUCAACCCCCCCACUGGCAUGUCACACAACAAUCUGGGUCAAAGACAACAGAGGAUUGAGCAUCA
B6: 52304824_52312335_384_CDS_ENSG00000164091_ENST00000296490|human|control|control (ssRNA)
RNA: GGGAGUUCUACAGUCCGACGAUCUUUGCCCUCCUGGCAGUCAUAGAGCACGAUGGAGUCGUCGUCGCUACUCGAGAUGACCGUCUCGCCGUUGGGGCUGAAAUCGAAGCAGUUAAUCUUGUCCGAGUUUUCGCGGAACACCUUCAACAGAGGAUUGAGCAUCA
B7: chr2:60072322:60072323:+_ENSMUSG00000026977_ENSMUST00000102748|mus_mus|motif|central (ssRNA)
RNA: GGGAGUUCUACAGUCCGACGAUCAGAUCUUGUAUUCAAGGAAUCUUGACUAGAUCUUCGUGAGAAAAAAGUAGAUGACAUGCGGGAAGCUAUCCGUGACAGCAAUCUCCUAGUUGUACGCCUACCUUCAUUGUCAGAAGAUUCCAACAGAGGAUUGAGCAUCA
B8: chr22:32879901:32879902:+_ENSG00000100225_ENST00000397426|hu_mus|hu_hu_hu_mus_False|1_1 (ssRNA)
RNA: GGGAGUUCUACAGUCCGACGAUCCUCUUCCAUACUCAUGGCAUCCUGAAUUGACUCAGCUUCAACAUUUUGACUAGGCCCUUCCAUACUGUCAUCAGUCCAGGCAUCAAAUGGGGUGGCCUGUCCUUGGGAUGAAUCACUUGGCAACAGAGGAUUGAGCAUCA
B9: chr1:27861377:27861378:-_ENSG00000126705_ENST00000374011|hu_mus|FALSE|FALSE (ssRNA)
RNA: GGGAGUUCUACAGUCCGACGAUCGGGGCCGCAGGGGGUGCAAGGGGCAGGUGGGAGGCAGAGGGGCAGGUGCUCCUGCCAGAGGACGAUGUGGACGCUGGGAGGGGUCUUGGCAUUGCUCUUCUGAAAGCCAGGAACAAAACCCAACAGAGGAUUGAGCAUCA
B10: chr3:179287964:179287965:+_ENSG00000136518_ENST00000429709|hu_hu|hu_hu_hu_mus_True|18_78 (ssRNA)
RNA: GGGAGUUCUACAGUCCGACGAUCCUUGAGUGGUGAGAUGGCCUCCAUGUUCUCCCUCGGAACACGCAGGGCAUUGGUGUCUAUGUAGUAGGUGGGCCCGCCCUGCUUGCCUUUGUCGCCAUCUAUUUCCAUCAUUGUACUUCCCAACAGAGGAUUGAGCAUCA
B11: chr5:107067165:107067166:-_ENSMUSG00000049606_ENSMUST00000112696|mus_mus|FALSE|FALSE (ssRNA)
RNA: GGGAGUUCUACAGUCCGACGAUCAACUAAAGCAGAGGUAGGUACUUUUUUAAUGGAAUGGGUUGGAUUCUUAGCAUGUGCUACAUCUGAUAACAAAAACAGAACUUGGUGUUGACUUGCUUUUUGUGGUGUAGACAGCUGAUGCAACAGAGGAUUGAGCAUCA
B12: chr15:73134924:73134925:-_ENSMUSG00000022607_ENSMUST00000110036|mus_mus|FALSE|FALSE (ssRNA)
RNA: GGGAGUUCUACAGUCCGACGAUCGUCAAAUCUGUACACAGGAGAAAGAAUCUCAAAGAAUUUCAGGAUGCUUUCUUCUCUAUUAAGGUUGGCAAACUGCCUGAAUGUUUGCUGGAUCAGCUUUCUUAGUGUUUUGGCCUUGACCAACAGAGGAUUGAGCAUCA
B13: chr6:108533379:108533380:-_ENSG00000112335_ENST00000426155|hu_mus|motif|central (ssRNA)
RNA: GGGAGUUCUACAGUCCGACGAUCUGCUUCUUCUCACCAAACUCAGGCAUGUCUUAUUUUAGAUGGAGUAUAGCUUUUAUCGGUAAUUUCAUCCUGUAAAAACAUGUGAAGACAACGUUCAUUCUGGGCCAGAGGAUGACCAGCCAACAGAGGAUUGAGCAUCA
B14: chr1:39494564:39494565:+_ENSG00000168653_ENST00000372967|hu_hu|hu_hu_hu_mus_True|8_108 (ssRNA)
RNA: GGGAGUUCUACAGUCCGACGAUCAUGUGCACGUCUCAUCGUUUUGUACCGAAGCAAGCACUCUUCGAAGUCAUCGAACUCUAUCUUGCACUCCUUUUUCGCCCGGGUCCCACCGAUCCCGUGUGCACAUUCUAUCCACUCUUUCAACAGAGGAUUGAGCAUCA
B15: chr10:114798999:114799000:-_ENSMUSG00000069520_ENSMUST00000092170|mus_mus|FALSE|FALSE (ssRNA)
RNA: GGGAGUUCUACAGUCCGACGAUCUCAUCUUUAUAUACCUUUUGCACGUAGUGUCGUCACUAUCUGUCAUGGAAAAUAGAGCUACGAGCACAUCUUCCACCAACCGAACGACAAAAUAGAAUCGUAAAUCCAAAACGUCUAGUCCAACAGAGGAUUGAGCAUCA
B16: chr16:32084594:32084595:-_ENSMUSG00000023791_ENSMUST00000096109|perfect_dup|motif|central (ssRNA)
RNA: GGGAGUUCUACAGUCCGACGAUCAGAAAACACUUAGCUGUACAAAACUUACAGGGAAAAGUGGCCAUAUUUGAAAACAGCGGAAAGGAUCAAAGUAGAACACAGAAUCGUAAUGAGCAGCGUCACAGAACACACUAAAGAGGUCAACAGAGGAUUGAGCAUCA
B17: 53077001_53077121_1355_3pUTR_ENSMUSG00000026960_ENSMUST00000028336|mouse|control|control (ssRNA)
RNA: GGGAGUUCUACAGUCCGACGAUCCUUUAAUUCUUUUUGAAGAGACAAAAUACUAAAGGACAGGUCUACACCAGCUAAGAAAUAAAAUUUACAGCCAUAUAGGUAUAAAUGUAAUCAUUUAAAACACAAAUGCAGUAUUAUAAACAACAGAGGAUUGAGCAUCA
B18: chr7:91631701:91631702:+_ENSG00000127914_ENST00000356239|hu_mus|FALSE|FALSE (ssRNA)
RNA: GGGAGUUCUACAGUCCGACGAUCUUCAUUUAGAUAAAGGCAUUGUUGUUGAAGGUCCUCGGUCUCCUUCCUCAGCAUCGCUACUUCUUUUUGCCACCUCGAGUCUGCCGACUUGCUUGUGCUGGGAUCUACGGCAAUGGAUCUCAACAGAGGAUUGAGCAUCA
B19: 94353784_94353904_1773_3pUTR_ENSG00000023909_ENST00000370238|human|control|control (ssRNA)
RNA: GGGAGUUCUACAGUCCGACGAUCACUAUGGAUGGAUCAAUAAUUUAAAAGAAUCUGGAUGGAGGUGACAGUAGUUGCUUUUAUAAAACCCCCAAACAAUAAUUUCAAAGCUUCUAGUCUCCUUUCAGAUUUACUUUGGUUUGUCAACAGAGGAUUGAGCAUCA
B20: chr17:55916980:55916981:-_ENSG00000181610_ENST00000313608|hu_mus|FALSE|FALSE (ssRNA)
RNA: GGGAGUUCUACAGUCCGACGAUCCAAAGCUGGUGCUUUCAAACCACAGUACUGAGAUUCAUAACAUCCCGAAAACAGGGACUAAGAGAAGGCACACGUGCCUGAGAGAUGGAGGCCAUCAGAGUCCAUCAGCUUGGGCCAGCGCAACAGAGGAUUGAGCAUCA
B21: 18865001_18865121_5024_CDS_ENSG00000157106_ENST00000446231|human|control|control (ssRNA)
RNA: GGGAGUUCUACAGUCCGACGAUCACCUGUGAAGUUCUGUUGGUGCUGAGCUCUGUAAACCUGUUUCAGCUGUCCUGAAAUCUCUUUCCAUUCUGCCUGGAUCCAUUUAGCCAGUGUCAGAAUUGAUUUAGCAACUGCAUAUUCCAACAGAGGAUUGAGCAUCA
B22: 76776367_76776973_7253_CDS_ENSG00000085224_ENST00000373344|human|control|control (ssRNA)
RNA: GGGAGUUCUACAGUCCGACGAUCCUCUGAGAGAUUCAUGUUCUCCUUCCAUACAGCUGAAAUUAUAUCCUCAAGAGGUUGAAUCCUCACUGCUGUCACACUGUUUGUUGCUUCUACAACUUUUUCUCUUCCUUGAUUAAUGAGCAACAGAGGAUUGAGCAUCA

Some of the results follow.

The target in the assay is T1, UNK ZnF1-3 (human, UniProt Q9C0B0 31-174).
T1 sequence: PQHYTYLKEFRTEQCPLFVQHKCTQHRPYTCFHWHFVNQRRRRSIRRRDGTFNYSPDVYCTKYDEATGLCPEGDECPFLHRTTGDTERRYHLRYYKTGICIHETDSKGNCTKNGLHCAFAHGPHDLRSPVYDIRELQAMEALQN
As to the kind of experiment: nsRBNS (natural sequence RNA bind-n-seq); RBNS binding buffer (assumed for nsRBNS): 25 mM Tris pH 7.5, 150 mM KCl, 3 mM MgCl2, 0.01% Triton X-100, 500 ug/ml BSA, 20 U/ml SUPERase-In, 4 C; UNK is unkempt and MSI1 is Musashi-1; names of the RNAs are library labels; protein concentration not given here; high values mean tight binding.
Consider B1, for which the binding signal is 0.704 enrichment R. The value for B2 was 0.839 enrichment R. The value for B3 was 1.04 enrichment R; that for B4 was 1.13 enrichment R. For the molecule B5, the binding signal amounted to 1.06 enrichment R. The value for B6 was 0.529 enrichment R; that for B7 was 0.487 enrichment R. The value for B8 was 1.02 enrichment R; that for B9 was 2.4 enrichment R. Take B10: the binding signal was found to be 0.342 enrichment R.

B11 showed a binding signal of 1.19 enrichment R. The same measure for B12: 1.04 enrichment R; for B13: 1.25 enrichment R; for B14: 0.498 enrichment R. The same measure for B15: 0.661 enrichment R; for B16: 1.46 enrichment R; for B17: 0.797 enrichment R. As to B18, the binding signal is 0.575 enrichment R. The value for B19 was 1.09 enrichment R. The value for B20 was 1.08 enrichment R; that for B21 was 0.623 enrichment R.

For B22, the binding signal came out at 0.527 enrichment R.
